This data set deals with Escherichia coli (laboratory strain). Nature of the data set: barcode share on antibiotic plates over drug-free plates; higher = less susceptible. How it is done:
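A pool of E. coli strains, each edited to carry one amino-acid change in an essential protein, was grown for 48 h on minimal glucose agar with or without antibiotic; strain barcodes were sequenced; mean of two replicates.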

The mark [1] stands for this setting: antibiotic: carbenicillin, 2× MIC (3.1 µg/mL).
[2] abbreviates: antibiotic: gentamicin, 2× MIC (MIC 0.45 µg/mL).

± gives the standard deviation of the averaged measurements. Laboratory Escherichia coli strains with one amino-acid change in an essential protein, pooled on minimal glucose agar with carbenicillin or gentamicin at twice the control MIC (plus kanamycin and chloramphenicol for the plasmids), 48 h. Fold change of barcode share against drug-free plates; higher = less susceptible. Active = above 20 in both replicates (the paper's putatively resistant). '<' = one read or none on drug, '>' = one read or none on a drug-free plate. Shares are relative, so most strains fall below 1 when a few take over. Listed are strains with at least 15 reads on both drug-free plates, and hits; most hits rest on fewer reference reads. Replicate rank correlation about 0.5. Edits are read from barcodes.

B1: pabB V341W (protein)
chain: MKTLSPAVITLLWRQDAAEFYFSRLSHLPWAMLLHSGYADHPYSRFDIVVAEPICTLTTFGKETVVSESEKRTTTTDDPLQVLQQVLDRADIRPTHNEDLPFQGGALGLFGYDLGRRFESLPEIAEQDIVLPDMAVGIYDWALIVDHQRHTVSLLSHNDVNARRAWLESQQFSPQEDFTLTSDWQSNMTREQYGEKFRQVQEYLHSGDCYQVNLAQRFHATYSGDEWQAFLQLNQANRAPFSAFLRLEQGAILSLSPERFILCDNSEIQTRPIKGTLPRLPDPQEDSKQAVKLANSAKDRAENLMIVDLMRNDIGRVAVAGSVKVPELFVVEPFPAVHHLWSTITAQLPEQLHASDLLRAAFPGGSITGAPKVRAMEIIDELEPQRRNAWCGSIGYLSFCGNMDTSITIRTLTAINGQIFCSAGGGIVADSQEEAEYQETFDKVNRILKQLEK
As to B1, the “fold change of barcode share” value was found to be 0.707 ± 0.13 under setting [1] and 0.0128 ± 0.0093 under setting [2].

B2: pabB V341Q (protein)
chain: MKTLSPAVITLLWRQDAAEFYFSRLSHLPWAMLLHSGYADHPYSRFDIVVAEPICTLTTFGKETVVSESEKRTTTTDDPLQVLQQVLDRADIRPTHNEDLPFQGGALGLFGYDLGRRFESLPEIAEQDIVLPDMAVGIYDWALIVDHQRHTVSLLSHNDVNARRAWLESQQFSPQEDFTLTSDWQSNMTREQYGEKFRQVQEYLHSGDCYQVNLAQRFHATYSGDEWQAFLQLNQANRAPFSAFLRLEQGAILSLSPERFILCDNSEIQTRPIKGTLPRLPDPQEDSKQAVKLANSAKDRAENLMIVDLMRNDIGRVAVAGSVKVPELFVVEPFPAVHHLQSTITAQLPEQLHASDLLRAAFPGGSITGAPKVRAMEIIDELEPQRRNAWCGSIGYLSFCGNMDTSITIRTLTAINGQIFCSAGGGIVADSQEEAEYQETFDKVNRILKQLEK
On to B2, for which the “fold change of barcode share” value was 1.2 ± 0.65 under setting [1] and < 0.0112 under setting [2].

B3: pabB L131W (protein)
chain: MKTLSPAVITLLWRQDAAEFYFSRLSHLPWAMLLHSGYADHPYSRFDIVVAEPICTLTTFGKETVVSESEKRTTTTDDPLQVLQQVLDRADIRPTHNEDLPFQGGALGLFGYDLGRRFESLPEIAEQDIVWPDMAVGIYDWALIVDHQRHTVSLLSHNDVNARRAWLESQQFSPQEDFTLTSDWQSNMTREQYGEKFRQVQEYLHSGDCYQVNLAQRFHATYSGDEWQAFLQLNQANRAPFSAFLRLEQGAILSLSPERFILCDNSEIQTRPIKGTLPRLPDPQEDSKQAVKLANSAKDRAENLMIVDLMRNDIGRVAVAGSVKVPELFVVEPFPAVHHLVSTITAQLPEQLHASDLLRAAFPGGSITGAPKVRAMEIIDELEPQRRNAWCGSIGYLSFCGNMDTSITIRTLTAINGQIFCSAGGGIVADSQEEAEYQETFDKVNRILKQLEK
With B3, the “fold change of barcode share” value under setting [1] was 1.45 ± 1.7.

B4: pabB L131A (protein)
chain: MKTLSPAVITLLWRQDAAEFYFSRLSHLPWAMLLHSGYADHPYSRFDIVVAEPICTLTTFGKETVVSESEKRTTTTDDPLQVLQQVLDRADIRPTHNEDLPFQGGALGLFGYDLGRRFESLPEIAEQDIVAPDMAVGIYDWALIVDHQRHTVSLLSHNDVNARRAWLESQQFSPQEDFTLTSDWQSNMTREQYGEKFRQVQEYLHSGDCYQVNLAQRFHATYSGDEWQAFLQLNQANRAPFSAFLRLEQGAILSLSPERFILCDNSEIQTRPIKGTLPRLPDPQEDSKQAVKLANSAKDRAENLMIVDLMRNDIGRVAVAGSVKVPELFVVEPFPAVHHLVSTITAQLPEQLHASDLLRAAFPGGSITGAPKVRAMEIIDELEPQRRNAWCGSIGYLSFCGNMDTSITIRTLTAINGQIFCSAGGGIVADSQEEAEYQETFDKVNRILKQLEK
For the protein B4, the “fold change of barcode share” value by setting is: under setting [1], 0.393 ± 0.11; under setting [2], < 0.0146.

B5: pabB F420W (protein)
chain: MKTLSPAVITLLWRQDAAEFYFSRLSHLPWAMLLHSGYADHPYSRFDIVVAEPICTLTTFGKETVVSESEKRTTTTDDPLQVLQQVLDRADIRPTHNEDLPFQGGALGLFGYDLGRRFESLPEIAEQDIVLPDMAVGIYDWALIVDHQRHTVSLLSHNDVNARRAWLESQQFSPQEDFTLTSDWQSNMTREQYGEKFRQVQEYLHSGDCYQVNLAQRFHATYSGDEWQAFLQLNQANRAPFSAFLRLEQGAILSLSPERFILCDNSEIQTRPIKGTLPRLPDPQEDSKQAVKLANSAKDRAENLMIVDLMRNDIGRVAVAGSVKVPELFVVEPFPAVHHLVSTITAQLPEQLHASDLLRAAFPGGSITGAPKVRAMEIIDELEPQRRNAWCGSIGYLSFCGNMDTSITIRTLTAINGQIWCSAGGGIVADSQEEAEYQETFDKVNRILKQLEK
Turning to B5, the “fold change of barcode share” value reads like this: under setting [1], 0.938 ± 0.26; under setting [2], 0.01264 ± 4.6e-05.

B6: pabB F420A (protein)
chain: MKTLSPAVITLLWRQDAAEFYFSRLSHLPWAMLLHSGYADHPYSRFDIVVAEPICTLTTFGKETVVSESEKRTTTTDDPLQVLQQVLDRADIRPTHNEDLPFQGGALGLFGYDLGRRFESLPEIAEQDIVLPDMAVGIYDWALIVDHQRHTVSLLSHNDVNARRAWLESQQFSPQEDFTLTSDWQSNMTREQYGEKFRQVQEYLHSGDCYQVNLAQRFHATYSGDEWQAFLQLNQANRAPFSAFLRLEQGAILSLSPERFILCDNSEIQTRPIKGTLPRLPDPQEDSKQAVKLANSAKDRAENLMIVDLMRNDIGRVAVAGSVKVPELFVVEPFPAVHHLVSTITAQLPEQLHASDLLRAAFPGGSITGAPKVRAMEIIDELEPQRRNAWCGSIGYLSFCGNMDTSITIRTLTAINGQIACSAGGGIVADSQEEAEYQETFDKVNRILKQLEK
Turning to B6, the “fold change of barcode share” value was determined as 0.674 ± 0.12 under setting [1] and 0.00995 ± 0.0078 under setting [2].

B7: pabB F420P (protein)
chain: MKTLSPAVITLLWRQDAAEFYFSRLSHLPWAMLLHSGYADHPYSRFDIVVAEPICTLTTFGKETVVSESEKRTTTTDDPLQVLQQVLDRADIRPTHNEDLPFQGGALGLFGYDLGRRFESLPEIAEQDIVLPDMAVGIYDWALIVDHQRHTVSLLSHNDVNARRAWLESQQFSPQEDFTLTSDWQSNMTREQYGEKFRQVQEYLHSGDCYQVNLAQRFHATYSGDEWQAFLQLNQANRAPFSAFLRLEQGAILSLSPERFILCDNSEIQTRPIKGTLPRLPDPQEDSKQAVKLANSAKDRAENLMIVDLMRNDIGRVAVAGSVKVPELFVVEPFPAVHHLVSTITAQLPEQLHASDLLRAAFPGGSITGAPKVRAMEIIDELEPQRRNAWCGSIGYLSFCGNMDTSITIRTLTAINGQIPCSAGGGIVADSQEEAEYQETFDKVNRILKQLEK
Take B7: the “fold change of barcode share” value under setting [1] was found to be 1.55 ± 0.13.

B8: pabB F420D (protein)
chain: MKTLSPAVITLLWRQDAAEFYFSRLSHLPWAMLLHSGYADHPYSRFDIVVAEPICTLTTFGKETVVSESEKRTTTTDDPLQVLQQVLDRADIRPTHNEDLPFQGGALGLFGYDLGRRFESLPEIAEQDIVLPDMAVGIYDWALIVDHQRHTVSLLSHNDVNARRAWLESQQFSPQEDFTLTSDWQSNMTREQYGEKFRQVQEYLHSGDCYQVNLAQRFHATYSGDEWQAFLQLNQANRAPFSAFLRLEQGAILSLSPERFILCDNSEIQTRPIKGTLPRLPDPQEDSKQAVKLANSAKDRAENLMIVDLMRNDIGRVAVAGSVKVPELFVVEPFPAVHHLVSTITAQLPEQLHASDLLRAAFPGGSITGAPKVRAMEIIDELEPQRRNAWCGSIGYLSFCGNMDTSITIRTLTAINGQIDCSAGGGIVADSQEEAEYQETFDKVNRILKQLEK
With B8, the “fold change of barcode share” value under setting [1] is 0.594 ± 0.017 and the “fold change of barcode share” value under setting [2] turned out to be 0.0106 ± 0.0044.

B9: pabB V341D (protein)
chain: MKTLSPAVITLLWRQDAAEFYFSRLSHLPWAMLLHSGYADHPYSRFDIVVAEPICTLTTFGKETVVSESEKRTTTTDDPLQVLQQVLDRADIRPTHNEDLPFQGGALGLFGYDLGRRFESLPEIAEQDIVLPDMAVGIYDWALIVDHQRHTVSLLSHNDVNARRAWLESQQFSPQEDFTLTSDWQSNMTREQYGEKFRQVQEYLHSGDCYQVNLAQRFHATYSGDEWQAFLQLNQANRAPFSAFLRLEQGAILSLSPERFILCDNSEIQTRPIKGTLPRLPDPQEDSKQAVKLANSAKDRAENLMIVDLMRNDIGRVAVAGSVKVPELFVVEPFPAVHHLDSTITAQLPEQLHASDLLRAAFPGGSITGAPKVRAMEIIDELEPQRRNAWCGSIGYLSFCGNMDTSITIRTLTAINGQIFCSAGGGIVADSQEEAEYQETFDKVNRILKQLEK
Turning to B9, the “fold change of barcode share” value was 1.08 ± 0.49 under setting [1] and 0.0141 ± 0.0093 under setting [2].

B10: pabB V341P (protein)
chain: MKTLSPAVITLLWRQDAAEFYFSRLSHLPWAMLLHSGYADHPYSRFDIVVAEPICTLTTFGKETVVSESEKRTTTTDDPLQVLQQVLDRADIRPTHNEDLPFQGGALGLFGYDLGRRFESLPEIAEQDIVLPDMAVGIYDWALIVDHQRHTVSLLSHNDVNARRAWLESQQFSPQEDFTLTSDWQSNMTREQYGEKFRQVQEYLHSGDCYQVNLAQRFHATYSGDEWQAFLQLNQANRAPFSAFLRLEQGAILSLSPERFILCDNSEIQTRPIKGTLPRLPDPQEDSKQAVKLANSAKDRAENLMIVDLMRNDIGRVAVAGSVKVPELFVVEPFPAVHHLPSTITAQLPEQLHASDLLRAAFPGGSITGAPKVRAMEIIDELEPQRRNAWCGSIGYLSFCGNMDTSITIRTLTAINGQIFCSAGGGIVADSQEEAEYQETFDKVNRILKQLEK
With B10, the “fold change of barcode share” value under setting [1] amounted to 1.11 ± 0.15.

B11: pabB F420Q (protein)
chain: MKTLSPAVITLLWRQDAAEFYFSRLSHLPWAMLLHSGYADHPYSRFDIVVAEPICTLTTFGKETVVSESEKRTTTTDDPLQVLQQVLDRADIRPTHNEDLPFQGGALGLFGYDLGRRFESLPEIAEQDIVLPDMAVGIYDWALIVDHQRHTVSLLSHNDVNARRAWLESQQFSPQEDFTLTSDWQSNMTREQYGEKFRQVQEYLHSGDCYQVNLAQRFHATYSGDEWQAFLQLNQANRAPFSAFLRLEQGAILSLSPERFILCDNSEIQTRPIKGTLPRLPDPQEDSKQAVKLANSAKDRAENLMIVDLMRNDIGRVAVAGSVKVPELFVVEPFPAVHHLVSTITAQLPEQLHASDLLRAAFPGGSITGAPKVRAMEIIDELEPQRRNAWCGSIGYLSFCGNMDTSITIRTLTAINGQIQCSAGGGIVADSQEEAEYQETFDKVNRILKQLEK
Regarding B11, the “fold change of barcode share” value under setting [1] amounted to 0.846 ± 0.11 and the “fold change of barcode share” value under setting [2] was determined as 0.0227 ± 0.00057.

These data come from the supplement of paper PMC11876631.
